Test results reported in PubChem BioAssay AID1347073 (National Center for Advancing Translational Sciences (NCATS), 2019).
The campaign covered roughly 45,000 compounds. About 200 (0.44%) were called active. Another 7% or so got no clear call; they are omitted. The call rests on the fitted dose curve; in most records, active means well fitted activation curve with a large enough effect; inconclusive means small, poorly fitted or top-dose-only effect; inactive means no such curve, though single readings can be large or run the other way. Some of the results follow.

Assay: qHTS of TDP-43 Inhibitors: NCGC Sytravon Library Screen; further: 0% is about no effect; nearly all actives have a fitted effect of over 55% in size
Settings: yeast TDP-43 toxicity rescue, BacTiter-Glo growth, 24 h; series mostly up to 46.1 µM; growth rescue (activation): at the top concentration
Method in brief: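 TDP-43-expressing yeast, pregrown in raffinose, seeded at OD600 0.02 in galactose medium with compound for 24 hr at 30 deg C. Growth read by BacTiter-Glo luminescence, so rescue of toxicity appears as activation.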

SMILES	growth rescue (activation)
CC(C)(Oc1ccc(Cl)cc1)C(=O)N1CCN(C(=O)c2ccco2)CC1	inactive: -4.35%
CCOc1ccccc1NC(=O)COC(=O)C(CC(C)C)N1C(=O)C2CC=CCC2C1=O (stereo unspecified)	inactive: -6.49%
CC1CCCCN1Cc1c(O)ccc2c(=O)c(-c3ccc(Cl)cc3)coc12 (stereo unspecified)	inactive: 17.7%
O=C(NC(=S)NCCN1CCOCC1)c1ccccc1Br	inactive: -1.22%
CCn1c(-c2nn(-c3ccccc3)ccc2=O)n[nH]c1=S	inactive: -12.7%
COc1ccccc1CN(C)C(=O)c1cc(-c2cccs2)nc2ccccc12	inactive: 24.4%
COc1cccc(CNC2CCCc3ccccc32)c1OC (stereo unspecified)	inactive: -2.45%
O=C(C1=C(O)C(=O)N(Cc2ccccc2)C1c1ccco1)c1ccco1 (stereo unspecified)	inactive: 12.4%
CCCN1C/C(=C/c2cccc([N+](=O)[O-])c2)C(=O)/C(=C/c2cccc([N+](=O)[O-])c2)C1	inactive: -0.0954%
COc1ccccc1C(=O)COC(=O)Cc1ccccc1F	inactive: 13.3%
COc1ccc(CN2CCCC(C(=O)c3cccc(C(F)(F)F)c3)C2)cc1O (stereo unspecified)	inactive: 2.56%
Cc1ccc(O)c(C(=O)c2cnn(C(=O)c3cccc(S(=O)(=O)N(C)C)c3)c2)c1	inactive: 15%
Cc1nn(C)c(C)c1Nc1ccc(N2C(=O)C3C4C=CC(C4)C3C2=O)cc1[N+](=O)[O-] (stereo unspecified)	inactive: -2.8%
Cc1ccc(S(=O)(=O)/N=C(/NC(=S)Nc2cccc(C)c2)c2ccccc2)cc1	inactive: 27.2%
O=C(Nc1cccc(Cl)c1)C1C2C=CC3(O2)C1C(=O)N(CCN1CCCCC1)C3C(=O)NC1CCCCC1 (stereo unspecified)	inactive: 0.135%
Cc1cccc(C(=O)OCC(=O)NC(C)CCc2ccccc2)c1O (stereo unspecified)	inactive: -8.55%
S=C(Nc1ccc2nc(-c3ccccn3)c(-c3ccccn3)nc2c1)N1CCCCC1	inactive: 16.4%
O=C(O)CCC(=O)N1c2ccccc2NC2=C(C(=O)CC(c3ccc(F)cc3)C2)C1c1ccc([N+](=O)[O-])o1 (stereo unspecified)	inactive: 4.95%
CN(C(=O)CSc1nnc(-c2cccs2)o1)C1CCS(=O)(=O)C1 (stereo unspecified)	inactive: -1.6%
O=C(COC(=O)Cn1cnc2ccccc2c1=O)NCCC1=CCCCC1	inactive: 4.36%
COc1ccc(NC(=O)Cc2nnc(SCC(=O)NC3CCCCC3C)n2C)cc1 (stereo unspecified)	inactive: 15.8%
CC(=O)Nc1ccc(S(=O)(=O)NCC(=O)NC(C)c2ccc(S(N)(=O)=O)cc2)cc1 (stereo unspecified)	inactive: 28.8%

SMILES	growth rescue (activation)
COc1ccc(C)cc1Nc1c2c(nc3ccccc13)CCC2	inactive: -9.93%
N#C/C(=C\c1ccc(N2CCCCC2)o1)C(N)=O	inactive: 15.4%
CN1CCN(CC(=O)N/N=C/c2ccc(F)c(F)c2)CC1	inactive: 6.32%
COc1cccc(NC(=O)c2ccccc2-c2ccccc2)c1	inactive: 8.14%
CC(C)(C)C(=O)Cn1c(=O)n(CCCCCC(=O)NCc2ccccc2Cl)c(=O)c2sccc21	inactive: 3.76%
CCC(=O)N1CCC1(C)C(=O)Nc1ccc(F)cc1 (stereo unspecified)	inactive: -2.54%
CN1CCN(CC(=O)Nc2ccccc2[N+](=O)[O-])CC1	inactive: 12.3%
COc1ccc(CCCC(=O)NC(C)c2ccccc2)cc1 (stereo unspecified)	inactive: 18.3%
Cc1ccc(S(=O)(=O)CC(=O)Nc2nc(C(C)(C)C)cs2)cc1	inactive: 23.9%
COc1ccc(C2CC(=O)Nc3cc4c(cc32)OCO4)c(OC)c1 (stereo unspecified)	inactive: 2.51%
COc1cccc(CN(C)CC(=O)NCc2ccc(C)cc2)c1	inactive: -18.1%
CCc1ccc(NC(=O)Cn2c(C(=O)OC)cc3oc(C)cc32)cc1	inactive: 10.9%
CCn1nnc(NC(=O)COc2ccc([N+](=O)[O-])cc2)n1	inactive: 14.7%
COc1cc(COc2ccc3c(C)c(Cc4ccccc4)c(=O)oc3c2)cc(OC)c1OC	inactive: 32.7%
COc1ccc(C(=O)C(C)OC(=O)c2cccc(S(=O)(=O)Nc3c(C)n(C)n(-c4ccccc4)c3=O)c2)cc1 (stereo unspecified)	inactive: 10.1%
CCOC(=O)c1[nH]ncc1CN1CCCC(C(=O)c2cccc(OC(C)C)c2)C1 (stereo unspecified)	inactive: 5.63%
Cc1cc(/C=C2\SC(=S)N(Cc3ccco3)C2=O)c(C)n1-c1ccccc1	inactive: -0.536%
COc1ccc(CN2C3CCCC2CC(NC(=O)/C=C/c2ccccc2)C3)cc1 (stereo unspecified)	inactive: 14.4%
O=C(N/N=C\c1cccc(Cl)c1)c1n[nH]c2c1CCCC2	inactive: -6.98%
C=CCn1c(Cc2cccs2)nnc1SCC(=O)NCc1ccco1	inactive: -18.1%
CCOC(=O)N1CCC(N2CCN(Cc3ccccc3)C(CCO)C2)CC1 (stereo unspecified)	inactive: -1.15%
C=CCSc1nnc(NC(=O)CSCc2c(C)noc2C)s1	inactive: 14.5%

SMILES	growth rescue (activation)
CN(C)C(CNC(=O)c1ccc2nccnc2c1)c1ccco1 (stereo unspecified)	inactive: 3.15%
CC(OC(=O)c1ccccc1C(=O)N(C)Cc1ccccc1)C(=O)NC1(C#N)CCCCC1 (stereo unspecified)	inactive: 4.78%
COc1cc(NC(=O)c2cccnc2Sc2ccc(C)c(C)c2)cc(OC)c1OC	inactive: -25.8%
CN(Cc1c(C(=O)N2CCCCCCC2)nc2ccc(Cl)cn12)C1CCOC1 (stereo unspecified)	inactive: 10.2%
Cc1ccccc1-c1cc2nc(NCc3ccc(N(C)C)cc3)n(C)c(=O)c2s1	inactive: 22.8%
COC(=O)CSc1nc(N2CCOCC2)c2c(c1C#N)CC(C)(C)N(C)C2	inactive: -3.15%
O=C(CNC(=O)c1ccc(C(F)(F)F)cc1)NC1CC1	inactive: -5.17%
O=C(NCCCN1CCOCC1)c1ccc2nc(Cc3ccccc3F)oc2c1	inactive: -1.33%
Cc1ccc(-c2noc(-c3nnn(CC(=O)Nc4ccc(C)cc4Cl)c3N)n2)cc1	inactive: -5.77%
COc1cccc(C(=O)c2c[nH]c(C(=O)NCCCN3CCOCC3)c2)c1	inactive: -0.308%
COc1ccccc1CN1C[C@@H]2C[C@@H](c3ccc4nsnc4c3)N3CCC[C@@]23C1=O	inactive: 15.1%
COc1cccc2cc(-c3nnc(-c4ccccc4)o3)c(=O)oc12	inactive: 0.877%
COc1ccc(/C=C/C(=O)c2c(O)c(OC)c3occc3c2OC)cc1	inactive: 6.63%
NC(=O)c1sc(=S)n2c1[nH]c(=O)c1sccc12	inactive: 16.7%
COc1cc(C(=O)Nc2sc3c(c2C#N)CCCC3)c(Br)c(OC)c1OC	inactive: 1.29%
Cc1oc(-c2cc(F)ccc2F)nc1CN1CCN(C)C(=O)[C@@H]1C	inactive: -0.902%
CC(C)CC(O)(c1ccccc1)C(CN1CCOCC1)c1ccccc1 (stereo unspecified)	inactive: 9.75%
O=C(CSc1ncc(-c2ccccc2)[nH]1)Nc1ccccc1F	inactive: 4.99%
COc1ccc(C(=O)Nc2nncs2)cc1S(=O)(=O)N1CCOCC1	inactive: 2.75%
CCOC(=O)C1(Cc2cccc(Cl)c2)CCCN(C(=O)c2cn[nH]c2)C1 (stereo unspecified)	inactive: -10.4%
COc1ccccc1CNC(=O)CN1C(=O)c2ccc([N+](=O)[O-])cc2C1=O	inactive: 19.5%
Cc1ccc(Cn2ccn(Cc3ccc(C)cc3)c(=O)c2=O)cc1	inactive: 6.49%
